About 450 (0.94%) of roughly 48,000 compounds were called active. About 19% were inconclusive and are not listed. Calls follow the shape of the dose curve; as a rule, active = well fitted inhibition curve with a large enough effect; inconclusive = small, poorly fitted or top-dose-only effect; inactive = no such curve, though single readings can be large or run the other way. This is one part of the list.
Assay: Primary qHTS for Identification of Small Molecule Inhibitors of Huntingtin Promoter Activity; also: nearly all actives have a fitted effect of over 50% in size
Details: HEK293 HTT promoter firefly luciferase reporter (activity 0% = vehicle and -100% = no light), 24 h; series mostly up to 57.5 µM; activity change, negative = inhibition: at the top concentration
In short: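 HEK293 Fluc reporter, 2,500 cells/well, 24 h pre-culture; cpds up to 57.5 uM final, 24 h 37 degrees C; Dual-Glo, 10 min RT; normalized vehicle = 0%, zero RLU = -100%.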

SMILES | activity change, negative = inhibition
CC(=O)N1CCc2c(sc3c2c(=O)n(-c2ccccc2C)c(=O)n3Cc2cccc(F)c2)C1 | inactive: -28.5%
C[C@@H](O)[C@H]1C(=O)N2C(C(=O)O)=C(SCCN=CN)C[C@H]12 | inactive: 5.41%
COc1ccc(OCC(=O)NCC(c2ccc(Cl)cc2)N2CCCCC2)cc1 (configuration not stated) | inactive: -12.7%
CC(=O)N1c2ccccc2C(=O)C1N1CCN(c2ccccc2)CC1 (configuration not stated) | inactive: -18.2%
CSc1ccc(CNC(=O)c2ccccc2NC(=O)c2nsc3ccccc23)cc1 | inactive: 16.7%
COc1ccc(NC(=O)c2c(-c3ccccc3)c(-c3ccccc3)nn(C)c2=O)c(OC)c1 | inactive: -12.4%
Cc1ccccc1Nc1c(-c2ccc(N3CCOCC3)cc2)nc2ncccn12 | inactive: 8%
Cc1c(CNC(C)CCc2ccccc2)c(C(=O)O)c(C)n1Cc1ccc(F)cc1Cl (configuration not stated) | inactive: -22.3%
CC1=C(C(=O)O)N2C(=O)[C@@H](NC(=O)[C@H](N)c3ccc(O)cc3)[C@H]2SC1 | inactive: -0.568%
O=C(Nc1ccccc1-c1nc2ccccc2s1)c1cc(Cl)cc(Cl)c1 | inactive: -12%
O=C(c1ccccc1Cl)n1nc(-c2cccnc2)nc1NCc1ccc(F)cc1 | inactive: -16.7%
COC(=O)c1scc(-c2ccccc2)c1S(=O)(=O)Nc1cccc(C)c1C | inactive: -22.7%
COc1ccc(N2CCN(C3=NS(=O)(=O)C(c4cccc(Br)c4)=C3C)CC2)cc1 | inactive: -16%
Cc1cc(C)c(NC(=O)CCc2c(C)nc3c(c(C)nn3C(C)(C)C)c2C)c(C)c1 | inactive: -8.99%
CCOC(=O)c1ccc(NC(=O)CCc2c(C)nc3nc[nH]n3c2=O)cc1 | inactive: 2.33%
COc1ccc(C2=NN(CC(=O)NCCCN(C)c3ccccc3)C(=O)CC2)cc1 | inactive: -9.68%
COC(=O)c1cc2sc(C)cc2n1Cc1ccc(Br)cc1F | inactive: -18.2%
COCCNC(=O)C(=O)NCC(c1cccnc1)N1CCN(c2ccccc2F)CC1 (configuration not stated) | inactive: -19.6%
Cc1ccc2oc3c(c(=O)c2c1)C(c1ccc(F)cc1)N(c1nc(C)c(C)s1)C3=O (configuration not stated) | inactive: 0.148%
COc1ccc(C2CC(=O)Nc3c2c(=O)[nH]c2nc4ccccc4n32)cc1OC (configuration not stated) | inactive: -11.2%
COc1ccccc1Nc1nc2ccc(Cl)cc2nc1-n1nc(C)cc1C | inactive: 12.7%
COc1ccc(NC(=O)c2nc3nc(C)cc(C(F)F)n3n2)c(C)c1 | inactive: 12.3%
COc1ccc(C=Cc2cc(OC)c(OC)c(OC)c2)cc1O | inactive: -26.8%
CCOC(=O)c1cccc(NC(=O)C2CCN(S(=O)(=O)c3cn(C)cn3)CC2)c1 | inactive: -12.8%

SMILES | activity change, negative = inhibition
Cc1ccc(C)c(NS(=O)(=O)c2cc3c(cc2Cl)NC(=O)CO3)c1 | inactive: -29.6%
CCc1ccc(NC(=O)N2CC(C)Oc3ccc(C)cc32)cc1 (configuration not stated) | inactive: -1.68%
CC(C)(C)OC(=O)N1CCC(c2c(C(=O)NCCN3CCC(Cc4ccccc4)CC3)cnn2-c2ccccc2)CC1 | inactive: -17.4%
COc1cc2ccccc2cc1C(=O)Nc1ccc2oc(-c3cccc(Cl)c3Cl)nc2c1 | inactive: 8.6%
COc1ccc(-n2cc(-c3ccccc3)nc2SCC(=O)Nc2ccccc2)cc1Cl | inactive: -23.4%
CCCn1c(NCc2ccccc2C)nc2ccccc21 | inactive: 17.4%
CCc1ccc(S(=O)(=O)c2nnn3c2nc(N2CCCC2)c2sccc23)cc1 | inactive: -5.52%
Cc1ccccc1C1C=C(c2ccc(Cl)cc2)Nc2nnnn21 (configuration not stated) | inactive: -28.5%
COc1ccc(NC(=O)COCc2cc(-c3cccs3)on2)cc1 | inactive: -1.86%
CN1C(=O)Cc2cc(S(=O)(=O)CCC(=O)N3CCN(c4ccccc4F)CC3)ccc21 | inactive: -17.4%
COc1ccc(-c2cc(C(F)(F)F)n3nc(C(=O)Nc4cccc(Cl)c4C)cc3n2)cc1 | inactive: -22.5% [at 11.5 µM]
CCOC(=O)c1ccc(NC(=O)Cn2cnc(S(=O)(=O)N3CCCC3)c2)cc1 | inactive: -17.5%
CCOc1ccc(OCC)c(NC(=O)CCc2c(C)nc3c(c2C)c(=O)n(C)c(=O)n3C)c1 | inactive: -4.74%
CCSc1ncc(Cl)c(C(=O)Nc2c(C(=O)Nc3ccc(Cl)cc3)oc3ccccc23)n1 | inactive: 5.99%
O=C(c1ccc2c(c1)N(Cc1ccccc1)C(=O)c1ccccc1S2(=O)=O)N1CCN(c2ccccn2)CC1 | inactive: -13.8%
CCOc1ccccc1CNC(=O)c1cc(-c2ccc(OC)cc2)nc2ccc(C(C)C)cc12 | inactive: -7.11%
COc1cc(C2c3c(oc4ccccc4c3=O)C(=O)N2c2nnc(C(C)C)s2)cc(OC)c1OC (configuration not stated) | inactive: -12.5%
COc1ccc(CNC(=O)c2ccc3c(c2)nc2n3CCCCC2)c(OC)c1 | inactive: 52.1%
CCOC(=O)c1cccc(NS(=O)(=O)c2cn(C)c(C)n2)c1 | inactive: -0.844%
COc1ccc(/C=C/c2noc(-c3ccccc3O)n2)cc1OC | inactive: 1.39%
Cc1ccc(Cn2ccn(Cc3ccccc3C)c(=O)c2=O)cc1 | inactive: -25.9%
COC(=O)c1ccccc1NC(=O)Cn1c(=O)n(-c2ccc(Cl)cc2)c(=O)c2c(C)c(C)sc21 | inactive: -3.47%
COc1cccc(-c2cc(C(=O)Nc3ccc(C)cc3)[nH]n2)c1 | inactive: 53.8%
